About 1,900 (1.5%) of roughly 130,000 compounds were called active. The inconclusive results got no clear call from the source; some entries with a clear call stand among them for comparison. Calls follow the shape of the dose curve; as a rule, active = well fitted cell-killing curve with a large enough effect; inconclusive = small, poorly fitted or top-dose-only effect; inactive = no such curve, though single readings can be large or run the other way. Potencies of inconclusive entries are doubtful fits and often do not repeat.
Assay: qHTS Screen for Compounds that Selectively Target Cancer Cells with p53 Mutations: Cytotoxicity of p53ts Cells at the Nonpermissive Temperature; also: nearly all actives have a fitted effect of over 55% in size
Conditions: H1299-p53A138V viability at 39C, ATP luminescence, 24 h; activity change, negative = cell killing: at 46.1 µM (top of the series)
Excerpt: NIH Chemical Genomics Center [NCGC] NIH Molecular Libraries Screening Centers Network [MLSCN] MLSCN Grant: 1 X01 MH079844-01 Assay Submitter (PI): Dr. SUN, YI, University of Michigan NCGC Assay Overview: Synthetic Lethal Screen for Compounds to Kill Cancer Cells with p53 Mutation. Tumor suppressor gene p53 serves as a major cellular barrier against tumorigenesis. […] The goal of this screening is to identify small molecule probes that selectively kill cancer cells with mutations in p53. This screening was carried out using two lines of H1299 lung cancer cells. The H1299-p53 A138V line express a temperature sensitive p53 mutant (p53ts) in which the mutant p53 protein (A138V) is in the mutant confirmation when grown at 39C (the nonpermissive temperature) and in the wild type conformation when grown at 32C (the permissive temperature). A H1299-neo line (p53 null) grown at both 39C and 32C were used as counter-screens to filter out false positive associated with temperature shifting. The small molecular compounds that selectively target mutant p53-containing cancer cells were selected as candidate probes for further study. A cytotoxicity assay based on the measurement of ATP contents in cells was used in this screen. Concentration-responses of all the compounds in the library collection were determined in qHTS using the cell lines and temperature conditions as above.
NCGC Assay Protocol Summary: Both the H1299-p53A138V and H1299-neo cell lines were provided by Dr.Yi Sun, a PI at the University Michigan. The cells were maintained and cultured at 37C. The resuspended frozen cells were used to plate the cells in the 1536-well assay plates at a density of 600 cells per well in 5 ul medium. The assay plates with the cells were incubated at 37C for 16 to 30 hours before the experiments. The library compounds in DMSO solution were added to the cells in assay plates and incubated 24 hours at 39C (for mutant p53 conformation) or 32C (for normal p53 conformation as control). An ATP_lite assay kit (PerkinElmer) was used to determine the cell viability. Tomaxifen (100uM) was used as the positive control for cell killing. Data were normalized to the controls for basal activity (DMSO only) and 100% killing (100uM tamoxifen). AC50 values were determined from concentration-response data modeled with the standard Hill equation. P53 assay protocol: 1. Reagent; 5 uL H1299-p53A138V or H1299-neo cell cells/well 2. Time; overnight; 37C incubation 3. Compounds; 23 nL; 5.9 nM to 46 uM 4. Controls; 23 nL; Tamoxifen 100 uM 5. Time; 24 hr; 39C incubation 6. Reagent; 3 uL; ATP_Lite reagent 7. Time; 20 min; Room Temperature 8. Detection; Luminescence; Viewlux plate reader Keywords: p53, synthetic lethal, cancer, cell viability, cytotoxicity, H1299 cell line, luminescence, MLSMR, MLSCN, NIH Roadmap, qHTS, NCGC
% is scaled to controls: 0 for no effect and ±100 for the full control effect; potency is read from the fitted curve at half-maximal effect; tags tell the direction and shape of the fitted curve.

Row | SMILES | Potency | activity change, negative = cell killing
1 | COc1ccccc1-c1nn2c(=O)cc(CN3CCN(C(=O)Nc4ccc(C)cc4Cl)CC3)nc2s1 | inconclusive: 2.51 µM [cytotoxic, full curve] | –
2 | Cc1oc(-c2ccc(Cl)cc2)nc1CN1CCC(C(=O)NCCCN2CCN(c3cccc(Cl)c3)CC2)CC1 | inconclusive: 12.6 µM [cytotoxic, single point] | –
3 | C=CCn1c(O)c(C(C)=NCc2cc(OC)cc(OC)c2)c(=O)[nH]c1=O | inconclusive: 15.8 µM [cytotoxic, partial curve] | –
4 | CN(C)[C@@H]1C(=O)C(C(N)=O)=C(O)[C@]2(O)C(=O)C3=C(O)c4c(O)cccc4[C@](C)(O)[C@H]3C[C@@H]12 | – | inactive: 4.74% [at 9.22 µM]
5 | Cc1cc(O)c2c(c1)C(=O)c1cc(O)cc(O)c1C2=O | – | inactive: 67.8%
6 | Cc1cc2n(n1)C(c1cc(C(C)(C)C)c(O)cc1O)Nc1ccccc1-2 (stereo unspecified) | inconclusive: 31.6 µM [cytotoxic, single point] | –
7 | NCCc1c[nH]c2ccc(OC(=O)C(=O)O)cc12 | – | inactive: 4.33% [at 9.22 µM]
8 | C[N+]1(C)[C@@H]2CC[C@H]1CC(OC(=O)c1c[nH]c3ccccc13)C2 (stereo partly specified) | inconclusive: 12.6 µM [cytotoxic, single point] | –
9 | COc1ccc(CCn2c(O)c(C=NCc3cccnc3)c(=O)[nH]c2=O)cc1OC | – | inactive: -2.58%
10 | CC1=C(O)C(=O)[C@H]2O[C@@H]2C1=O | inconclusive: 15.8 µM [cytotoxic, single point] | –
11 | CCOc1ccc2nc(N3CCC(C(=O)Nc4ccc(Br)cc4F)CC3)sc2c1 | inconclusive: 15.8 µM [cytotoxic, partial curve, poor fit] | –
12 | O=C(CC1CCCCC1)c1c(O)c2ccccc2oc1=O | inconclusive: 31.6 µM [cytotoxic, single point] | –
13 | C(=C/c1ccccc1)/CN1CCN(CCOC(c2ccccc2)c2ccccc2)CC1 | active: 31.6 µM | –
14 | O=c1c2ccccc2nc(/C=C/c2cccc3ccccc23)n1-c1ccccc1Cl | inconclusive: 0.0032 µM [cytotoxic, full curve] | –
15 | CC[n+]1c(-c2ccccc2)c2cc(N)ccc2c2ccc(N)cc21 | active: 2.51 µM | –
16 | O=C(OC1CCN(CCCl)CC1)C(c1ccccc1)c1ccccc1 | inconclusive: 12.6 µM [cytotoxic, single point] | –
17 | c1ccc(CCCN2CCN(CCOC(c3ccccc3)c3ccccc3)CC2)cc1 | active: 31.6 µM | –
18 | Cc1oc2ccc(O)c(CN3CCCCCC3)c2c1C(=O)Nc1cccc(Cl)c1C | active: 15.8 µM | –
19 | C[C@@]12CC[C@H](O[C@@H]3O[C@H](CO)[C@@H](O)[C@H](O)[C@@H]3O)C[C@@H]1CC[C@H]1[C@H]2CC[C@@]2(C)[C@@H](C3=CCOC3=O)CC[C@]12O | – | inactive: 4.53% [at 9.22 µM]
20 | Cc1ccc2oc(-c3ccc(Cl)cc3)c(O)c(=O)c2c1 | inconclusive: 20 µM [cytotoxic, single point] | –
21 | CCOc1ccc(NC(=O)c2cc3c(C)nn(-c4ccccc4)c3s2)cc1 | inconclusive: 12.6 µM [cytotoxic, single point] | –

Row | SMILES | Potency | activity change, negative = cell killing
22 | Nc1nc(N)c2nc(CNc3ccc(C(=O)N[C@H](CCC(=O)O)C(=O)O)cc3)cnc2n1 | inconclusive: 0.0316 µM [cytotoxic, full curve] | –
23 | CN(C)c1ccc(N=O)cc1 | inconclusive: 7.94 µM [cytotoxic, partial curve] | –
24 | CCCCCCOc1ccc(CN2CCN(C)CC2)cc1 | inconclusive: 20 µM [cytotoxic, single point] | –
25 | C=C(CC1(C(C)NP(=O)(c2ccccc2)c2ccccc2)CC1)c1ccccc1 (stereo unspecified) | inconclusive: 31.6 µM [cytotoxic, single point] | –
26 | CCn1nc(-c2cccs2)nc2c(=O)n(C)c(=O)nc1-2 | active: 3.98 µM | –
27 | Cc1ccc(-c2nc(S(=O)(=O)c3ccc(C)cc3)c(SCC(=O)Nc3ccc(F)cc3)o2)cc1 | inconclusive: 12.6 µM [cytotoxic, single point] | –
28 | COc1ccc(/C=C/c2nc3ccccc3c(=O)n2-c2ccc(C)cc2)cc1O | inconclusive: 15.8 µM [cytotoxic, single point] | –
29 | C[C@]12CCC3C(CC[C@]4(O)CC(O)CC[C@@]34C=O)[C@]1(O)CCC2C1=CC(=O)OC1 (stereo partly specified) | inconclusive: 6.31 µM [cytotoxic, full curve, poor fit] | –
30 | CCOc1ccc(CNC(=O)c2cccc(Nc3nc4ccccc4n4nnnc34)c2)cc1OC | inconclusive: 5.01 µM [cytotoxic, partial curve] | –
31 | Cc1oc(-c2ccc(Cl)cc2)nc1CN1C(=O)CN=C(c2ccccc2)c2ccccc21 | inconclusive: 3.16 µM [cytotoxic, full curve, poor fit] | –
32 | CC(C)CCCC(C)C1CCC2C3CC(O)[C@@]4(O)CC(O)CC[C@@]4(C)C3CC[C@@]12C (stereo partly specified) | inconclusive: 31.6 µM [cytotoxic, single point] | –
33 | CN1[C@@H]2CC[C@H]1CC(OC(c1ccc(F)cc1)c1ccc(F)cc1)C2 (stereo partly specified) | – | inactive: -5.42%
34 | O=C1CN(C(=O)CN2CCCCC2)C(c2ccccc2)c2cc(Br)ccc2N1 (stereo unspecified) | inconclusive: 25.1 µM [cytotoxic, single point] | –
35 | O=C(CCCN1CCC2(CC1)C(=O)N(Cc1cccc(F)c1)CN2c1ccccc1)c1ccc(F)cc1 | inconclusive: 31.6 µM [cytotoxic, single point] | –
36 | CCCC/C=C/[C@@H](NP(=O)(c1ccccc1)c1ccccc1)c1ccccc1OC | inconclusive: 25.1 µM [cytotoxic, single point] | –
37 | c1cc(OCC2CO2)cc(OCC2CO2)c1 (stereo unspecified) | active: 25.1 µM | –
38 | c1ccc2c(CCNCc3ccc4c(c3)OCO4)c[nH]c2c1 | inconclusive: 10 µM [cytotoxic, partial curve] | –
39 | COC(=O)CSC1=NP(=S)(SCC(=O)OC)N2CCCC2=C1C#N (stereo unspecified) | inconclusive: 31.6 µM [cytotoxic, single point] | –
40 | CCC(=O)OC1CCC2C3CCc4cc(O)ccc4C3CC[C@]12C (stereo partly specified) | active: 10 µM | –
41 | COc1ccc(C2Oc3c(I)c(OC)cc(OC)c3CC2O)cc1OC (stereo unspecified) | – | inactive: -12.1%
